# Data reported in the supplement of paper PMC8728848.
# This is one part of the list.
# Tests used:
# Test in all cases: glycan array binding signal (z-score within array); higher = stronger binding
# Conditions in all cases: glycan notation: IUPAC condensed, linker removed
# Fuc(a1-2)Gal = biological target: Fuc(a1-2)Gal
# Outline: (§1)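 Glycan array data came from 3228 arrays in the Consortium for Functional Glycomics database, and only arrays with an available protein sequence were kept. Glycan names were put into IUPAC-condensed notation, and columns mapping to the same glycan were averaged. The binding signal is a within-array Z-score, averaged across arrays of one protein sequence run at different concentrations or buffers and across linkers. A negative Z-score can be read as non-binding.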
# Fuc(a1-2)Gal(b1-3)GalNAc = biological target: Fuc(a1-2)Gal(b1-3)GalNAc
# Outline: as §1
# [1] = biological target: Fuc(a1-2)Gal(b1-3)GalNAc(a1-3)[Fuc(a1-2)]Gal(b1-4)Glc
# Outline: as §1
# [2] = biological target: Fuc(a1-2)Gal(b1-3)GalNAc(a1-3)[Fuc(a1-2)]Gal(b1-4)GlcNAc
# Outline: as §1
# [3] = biological target: Fuc(a1-2)Gal(b1-3)GalNAc(b1-3)Gal
# Outline: as §1
# [4] = biological target: Fuc(a1-2)Gal(b1-3)GalNAc(b1-3)Gal(a1-4)Gal(b1-4)Glc
# Outline: as §1
# [5] = biological target: Fuc(a1-2)Gal(b1-3)GalNAc(b1-3)Gal(b1-4)Glc
# Outline: as §1
# [6] = biological target: Fuc(a1-2)Gal(b1-3)GalNAc(b1-4)[Neu5Ac(a2-3)]Gal(b1-4)Glc
# Outline: as §1
# Fuc(a1-2)Gal(b1-3)GlcNAc = biological target: Fuc(a1-2)Gal(b1-3)GlcNAc
# Outline: as §1
# [7] = biological target: Fuc(a1-2)Gal(b1-3)GlcNAc(b1-2)Man(a1-3)[Fuc(a1-2)Gal(b1-3)GlcNAc(b1-2)Man(a1-6)]Man(b1-4)GlcNAc(b1-4)GlcNAc
# Outline: as §1
# [8] = biological target: Fuc(a1-2)Gal(b1-3)GlcNAc(b1-2)Man(a1-3)[Fuc(a1-2)Gal(b1-3)GlcNAc(b1-2)Man(a1-6)]Man(b1-4)GlcNAc(b1-4)[Fuc(a1-6)]GlcNAc
# Outline: as §1
# [9] = biological target: Fuc(a1-2)Gal(b1-3)GlcNAc(b1-3)Gal(b1-4)Glc
# Outline: as §1
# [10] = biological target: Fuc(a1-2)Gal(b1-3)GlcNAc(b1-3)GalNAc
# Outline: as §1
# [11] = biological target: Fuc(a1-2)Gal(b1-3)GlcNAc(b1-3)[Fuc(a1-2)Gal(b1-3)GlcNAc(b1-6)]GalNAc
# Outline: as §1
# [12] = biological target: Fuc(a1-2)Gal(b1-3)GlcNAc(b1-3)[Gal(b1-4)GlcNAc(b1-6)]Gal(b1-4)Glc
# Outline: as §1
# [13] = biological target: Fuc(a1-2)Gal(b1-3)GlcNAc(b1-3)[Neu5Ac(a2-6)Gal(b1-4)GlcNAc(b1-6)]Gal(b1-4)Glc
# Outline: as §1
# [14] = biological target: Fuc(a1-2)Gal(b1-3)GlcNAc6S
# Outline: as §1
# [15] = biological target: Fuc(a1-2)Gal(b1-3)[Fuc(a1-4)]GlcNAc
# Outline: as §1
# [16] = biological target: Fuc(a1-2)Gal(b1-3)[Fuc(a1-4)]GlcNAc(b1-2)Man(a1-3)[Fuc(a1-2)Gal(b1-3)[Fuc(a1-4)]GlcNAc(b1-2)Man(a1-3)]Man(b1-4)GlcNAc(b1-4)GlcNAc
# Outline: as §1
# [17] = biological target: Fuc(a1-2)Gal(b1-3)[Fuc(a1-4)]GlcNAc(b1-2)Man(a1-3)[Fuc(a1-2)Gal(b1-3)[Fuc(a1-4)]GlcNAc(b1-2)Man(a1-6)]Man(b1-4)GlcNAc(b1-4)[Fuc(a1-6)]GlcNAc(b1-4)[Fuc(a1-6)]GlcNAc
# Outline: as §1
# [18] = biological target: Fuc(a1-2)Gal(b1-3)[Fuc(a1-4)]GlcNAc(b1-3)[Fuc(a1-3)[Gal(b1-4)]GlcNAc(b1-6)]Gal(b1-4)Glc
# Outline: as §1
# [19] = biological target: Fuc(a1-2)Gal(b1-3)[Fuc(a1-4)]GlcNAc(b1-3)[Gal(b1-4)GlcNAc(b1-6)]Gal(b1-4)Glc
# Outline: as §1
# [20] = biological target: Fuc(a1-2)Gal(b1-4)Fuc(a1-3)]GlcNAc(b1-2)Man(a1-3)[Fuc(a1-2)Gal(b1-4)[Fuc(a1-3)]GlcNAc(b1-2)Man(a1-6)]Man(b1-4)GlcNAc(b1-4)GlcNAc
# Outline: as §1
# Fuc(a1-2)Gal(b1-4)Glc = biological target: Fuc(a1-2)Gal(b1-4)Glc
# Outline: as §1
# Fuc(a1-2)Gal(b1-4)Glc6S = biological target: Fuc(a1-2)Gal(b1-4)Glc6S
# Outline: as §1
# Fuc(a1-2)Gal(b1-4)GlcNAc = biological target: Fuc(a1-2)Gal(b1-4)GlcNAc
# Outline: as §1
# [21] = biological target: Fuc(a1-2)Gal(b1-4)GlcNAc(b1-2)Man
# Outline: as §1
# [22] = biological target: Fuc(a1-2)Gal(b1-4)GlcNAc(b1-2)Man(a1-3)[Fuc(a1-2)Gal(b1-4)GlcNAc(b1-2)Man(a1-6)]Man(b1-4)GlcNAc(b1-4)GlcNAc
# Outline: as §1
# [23] = biological target: Fuc(a1-2)Gal(b1-4)GlcNAc(b1-2)Man(a1-3)[Fuc(a1-2)Gal(b1-4)GlcNAc(b1-2)Man(a1-6)]Man(b1-4)GlcNAc(b1-4)[Fuc(a1-6)]GlcNAc
# Outline: as §1
# [24] = biological target: Fuc(a1-2)Gal(b1-4)GlcNAc(b1-2)[Fuc(a1-2)Gal(b1-4)GlcNAc(b1-4)]Man(a1-3)[Fuc(a1-2)Gal(b1-4)GlcNAc(b1-2)Man(a1-6)]Man(b1-4)GlcNAc(b1-4)GlcNAc
# Outline: as §1
binder,measurement,setting,value
"LTL (Lotus tetragonolobus), P19664 (protein) VSFNYTEFKDDGSLILQGDAKIWTDGRLAMPTDPLVNNPKTTRSAGRALYATPVPIWDSATGNVASFVTSFNFLFVIRELKYTPTDGLVFFLAPVGTEIPSGSTGGFLGIFDGSNGFNQFVAVEFDSYHNIWDPKSLRSSHVGIDVNSIMSLKAVNWNRVSGSLEKATIIYDSQTNILSVVMTSQNGQITTIYGTIDLKTVLPEKVSVGFSATTGNPEREKHDIYSWSFTSTLKEPEEQA",glycan array binding signal (z-score),Fuc(a1-2)Gal,0.351
same,glycan array binding signal (z-score),Fuc(a1-2)Gal(b1-3)GalNAc,-0.337
same,glycan array binding signal (z-score),[1],-0.173
same,glycan array binding signal (z-score),[2],-0.117
same,glycan array binding signal (z-score),[3],0.149
same,glycan array binding signal (z-score),[4],-0.128
same,glycan array binding signal (z-score),[5],0.013
same,glycan array binding signal (z-score),[6],-0.236
same,glycan array binding signal (z-score),Fuc(a1-2)Gal(b1-3)GlcNAc,-0.223
same,glycan array binding signal (z-score),[7],0.27
same,glycan array binding signal (z-score),[8],-0.226
same,glycan array binding signal (z-score),[9],-0.241
same,glycan array binding signal (z-score),[10],-0.132
same,glycan array binding signal (z-score),[11],0.035
same,glycan array binding signal (z-score),[12],-0.196
same,glycan array binding signal (z-score),[13],-0.272
same,glycan array binding signal (z-score),[14],-0.15
same,glycan array binding signal (z-score),[15],-0.277
same,glycan array binding signal (z-score),[16],0.157
same,glycan array binding signal (z-score),[17],-0.192
same,glycan array binding signal (z-score),[18],-0.312
same,glycan array binding signal (z-score),[19],-0.265
same,glycan array binding signal (z-score),[20],0.157
same,glycan array binding signal (z-score),Fuc(a1-2)Gal(b1-4)Glc,0.344
same,glycan array binding signal (z-score),Fuc(a1-2)Gal(b1-4)Glc6S,-0.014
same,glycan array binding signal (z-score),Fuc(a1-2)Gal(b1-4)GlcNAc,0.463
same,glycan array binding signal (z-score),[21],-0.289
same,glycan array binding signal (z-score),[22],-0.034
same,glycan array binding signal (z-score),[23],-0.255
same,glycan array binding signal (z-score),[24],0.114
